In all, about 50,000 compounds went through this assay and about 800 (1.6%) showed an effect of 50% or more. The list shows a part of the results.
target: Bcl-2-like protein 10 (Homo sapiens) (UniProt Q9HD36); assay: Phenotype converters, Bcl-B/TR3 peptide binding displacement, primary biochemical FP (AID 1240); details: GST-Bcl-B / FITC-TR3 peptide fluorescence polarization; stronger effect = higher value; compound at 3.75 mg/L;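 also: 0% = Bcl-B with tracer peptide and DMSO and 100% = tracer peptide lacking Bcl-B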
UniProt Q9HD36, sequence (Q9HD36 whole entry, looked up): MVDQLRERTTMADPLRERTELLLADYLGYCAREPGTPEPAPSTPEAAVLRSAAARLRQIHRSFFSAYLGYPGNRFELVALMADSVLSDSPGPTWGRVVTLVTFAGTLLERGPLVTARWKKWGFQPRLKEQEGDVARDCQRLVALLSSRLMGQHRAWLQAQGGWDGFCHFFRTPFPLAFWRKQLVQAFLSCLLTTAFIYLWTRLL

Point of comparison: O=C(Nc1ccc2nn(-c3ccccc3)nc2c1)c1cccc(F)c1, displacement 10.1%. Against it:
- COc1cc(C=NN2CCN(c3ccc(Cl)cc3)CC2)cc(OC)c1OC(C)=O — lower, -3.3%
- O=C(Nc1ccc(NC(=O)c2ccccc2[N+](=O)[O-])cc1)c1ccco1 — lower, -8.2%
- COc1ccccc1/C=C1/C(=O)NC(=O)N(c2ccccc2OC)C1=O — lower, -2.3%
- O=c1c(-c2ccc(Cl)cc2)coc2c(CN3CCCCC3)c(O)ccc12 — lower, -15.4%
- CCCOc1cccc(C(=O)Nc2cc3nn(-c4ccc(OC)cc4)nc3cc2C)c1 — lower, -1.7%
- Cc1ccc(C(=O)Nc2ccc(-c3nc4cc5ccccc5cc4[nH]3)cc2)cc1[N+](=O)[O-] — lower, 1.6%
- CCOC(=O)c1c(-c2ccc(C(C)C)cc2)csc1N — lower, -9.2%
- CCOC(=O)c1ccccc1NC(=O)CCNS(=O)(=O)c1ccccc1[N+](=O)[O-] — lower, 7.8%
- Cc1cccc(CN2CCN(C(=O)c3ccncc3)CC2)c1 — lower, -8.3%
- CC1=CC(C)(C)Nc2ccc(OC(=O)c3ccccc3Br)cc21 — lower, 6.5%
- OC(CNCc1ccccc1)(c1ccccc1)c1ccc(Cl)cc1 (stereo not given) — lower, -9.4%
- Cc1ccc(NC(=O)c2ccccc2Br)cc1 — lower, -2.1%
- Cc1ccc(NC(=O)c2ccc(OCc3ccccc3)cc2)c([N+](=O)[O-])c1 — the same, 10.1%
- CC1(C)CC(=O)c2c(oc3ccc(NS(=O)(=O)c4cccc([N+](=O)[O-])c4)cc23)C1 — lower, -1.2%
- O=C(NCCO)C(=O)NCc1ccccn1 — lower, -5.2%
- CSC1=C(C#N)C(c2ccco2)CC(=O)N1 (stereo not given) — lower, -6.5%
- O=C(Nc1cc(Br)cc2cccnc12)c1ccc(Cl)cc1 — lower, -7.2%
- Cc1ccnc(NC(=O)/C=C/c2cccc([N+](=O)[O-])c2)c1 — higher, 14.3%
- COC(=O)c1ccc(N2C(=O)c3ccc(OC)c(OC)c3C2=O)cc1 — lower, -7.1%
- Cc1cc(Cl)ccc1OCC(=O)NNC(=O)Cc1cccs1 — lower, 1.6%
- COc1ccc(C(=O)Nn2cc3cc([N+](=O)[O-])ccc3n2)cc1 — lower, -9.5%
- CCc1ccc(NC2=C(Cl)C(=O)N(c3ccc(C)cc3)C2=O)cc1 — higher, 18.4%
- CCOC(=O)C1=C(C)N=c2s/c(=C\c3ccc(N(C)C)cc3)c(=O)n2C1/C=C/c1ccccc1 (stereo not given) — lower, 2.8%
- O=C(COc1ccccc1[N+](=O)[O-])Nc1ccc(Br)cn1 — lower, 3.3%
- O=C(COc1cc(Cl)ccc1Cl)Nc1ccccc1F — lower, -1.3%
- Cc1ccc(OCCSc2nc(C)cc(=O)[nH]2)c(C(C)C)c1 — lower, 6.3%
- COc1ccc(C2Nc3ccccc3C(=O)N2Cc2ccco2)cc1COc1ccc(Cl)cc1 (stereo not given) — higher, 13.2%
- COc1ccc(N/C(C)=C/C2=[N+](c3ccccc3)C(O)(c3ccccc3)CS2)cc1 (stereo not given) — lower, -6.8%
- Cc1sc2nc(-c3ccc(-c4cccc([N+](=O)[O-])c4)o3)[nH]c(=O)c2c1C — lower, -15.4%
- O=C(NCc1ccco1)C(=O)Nc1ccc2c(c1)OCO2 — higher, 11.5%
- O=C(CCC1CCCCC1)N1CCN(c2cccc(Cl)c2)CC1 — lower, -9.9%
- Nc1nc2nc(-c3ccco3)cc(C(F)(F)F)n2n1 — lower, 8%
- O=C(CCN1C(=O)c2ccccc2C1=O)Nc1cc(C(F)(F)F)ccc1Cl — lower, -2.6%
- COc1ccc(/C=C2\C(=O)NC(=O)N(c3ccc(Br)c(C)c3)C2=O)c(OC)c1 — lower, -20.2%
- Fc1ccc(NC(=S)NCCC2=CCCCC2)cc1 — lower, 0.6%
- Cc1cccc(NC(=O)C(=O)NCc2ccc3c(c2)OCO3)c1 — higher, 12.8%
- O=C(Cc1cccc2ccccc12)Nc1ccc2c(c1)OCCO2 — higher, 10.8%
- O=C(Cc1ccc(Cl)cc1)NNC(=O)C1CCCO1 (stereo not given) — lower, 2.5%
- Cc1ccc(C)c(S(=O)(=O)Nc2ccccc2)c1 — lower, 8.2%
- CCN1C(=O)/C(=C\c2ccc([N+](=O)[O-])cc2)C(C(=O)OC)=C1C — lower, -16.2%
- Cc1ccc(S(=O)(=O)c2ccc(Oc3ccc(Cl)cc3)cc2)cc1 — lower, 2%
- COc1ccc(OCC(=O)Nc2ccc(-c3nc4ncccc4o3)cc2)cc1 — lower, -0.9%
- CC(C)c1ccc(/C=C(\NC(=O)c2ccccc2)C(=O)NCC2CCCO2)cc1 (stereo not given) — lower, 9.8%
- Cc1no[n+]([O-])c1COc1ccccc1/C=N/n1nnnc1N — lower, -19.5%
- O=C(c1cccs1)N1CCN(c2ccc([N+](=O)[O-])cc2F)CC1 — lower, 0.7%
- CCOc1cc(C(=O)Nc2ccc(F)cc2F)cc(OCC)c1OCC — lower, 7.2%
- Cc1cccc(NC(=O)CN(c2ccc(C(C)C)cc2)S(=O)(=O)c2ccccc2)c1 — lower, 2.4%
- Cc1cc(C)cc(NC(=O)COc2cccc(Cl)c2)c1 — lower, -11.3%
- CCOc1cc(/C=N/NC(=O)c2ccccn2)ccc1OC(=O)c1ccccc1 — lower, -0.8%
- COc1ccc(CCNC(=O)c2ccc([N+](=O)[O-])cc2)cc1OC — lower, -0.9%
- CC1=C(C(=O)OCCc2ccccc2)C(c2ccc([N+](=O)[O-])cc2)NC(=O)N1C (stereo not given) — lower, 0.4%
- COc1ccc(Br)cc1C(=O)Nc1ccc(Cc2ccncc2)cc1 — lower, -3.3%
- Cc1ccc(NC(=O)OCC2c3ccccc3-c3ccccc32)cc1 — higher, 18.9%
- CC1(C)CC(=O)C(=Cc2cn(-c3ccccc3)nc2-c2ccc(Cl)cc2)C(=O)C1 — higher, 28.2%
- COc1ccc(C2CC(=O)C3=C(C2)Nc2ccccc2NC3c2ccc(C)o2)cc1 (stereo not given) — lower, 0.2%
- CNC(=O)C(=O)Nc1c(C)cccc1C — lower, 7.9%
- COc1ccccc1CC1S/C(=N\N=C\c2cccc([N+](=O)[O-])c2)NC1=O (stereo not given) — higher, 12.9%
- CSc1ccccc1NC(=O)CC1Sc2ccccc2NC1=O (stereo not given) — lower, 2.5%
- COC(OC)C12c3ccccc3C(c3ccccc31)C1C(=O)N(Cc3ccco3)C(=O)C12 (stereo not given) — lower, 2.5%
- Cc1ccc(OCc2nc(-c3ccc([N+](=O)[O-])cc3)no2)c(Br)c1 — higher, 16.4%
- CCOc1cc(C(=O)Nc2ccc(OC)cc2)cc(OCC)c1OCC — lower, 3.7%
- CS(=O)(=O)N(Cc1ccc(C(=O)N2CCCCCC2)cc1)c1ccccc1 — lower, -4.9%
- COc1ccc(NC(=O)C(NC(=O)c2ccc(C)cc2)C23CC4CC(CC(C4)C2)C3)cc1 (stereo not given) — lower, -3.3%
- CCCCCCCCC(=O)N/N=C/c1ccsc1C — lower, 0.8%
- Cc1cc(NC(=O)CSc2nnc3c4ccccc4n(C)c3n2)no1 — lower, 3.9%
- COc1cccc(N2C(=O)C(=O)/C(=C(\O)c3ccccc3)C2c2ccccc2)c1 (stereo not given) — lower, 4.5%
- CC1=C(C)CC2C(=O)N(c3ccc(Br)cc3)C(=O)C2C1 (stereo not given) — lower, -3.8%
- Cc1cccc(NC(=O)c2ncn[nH]2)c1C — lower, -12.9%
- CC(C)(C)c1cc(/C=N/Nc2nnc3c(n2)[nH]c2ccccc23)cc(C(C)(C)C)c1O — lower, 4.8%
- CCOc1ccccc1N=CC1=C(O)CC(c2ccccc2)CC1=O (stereo not given) — lower, -5%
- O=C1N=c2ccc(Br)cc2=C1c1sc(Nc2ccc(O)cc2)nc1O — higher, 16.4%
- Fc1ccc(/C=N/N2CCOCC2)cc1 — lower, -8.8%
- Cc1ccccc1N1C(=O)/C(=C\c2cccs2)SC1=S — higher, 14.2%
- CCc1ccc(N2C(=O)NC(=O)/C(=C\c3cc(C)n(-c4cccnc4)c3C)C2=O)cc1 — lower, 6.3%
- C/C(=N\NC(=O)c1cc(C2CC2)[nH]n1)c1ccc(Br)cc1 — lower, -7.4%
- CCOC(=O)c1nnc2cc(-c3ccc(C)cc3)nn2c1C — lower, -6%
- COC(=O)CN1C(=O)/C(=C\C=C\c2ccccc2)SC1=S — higher, 10.8%
- Cc1ccc(S(=O)(=O)N2CCN(CCNC(=O)C(=O)Nc3ccc(Br)cc3)CC2)cc1 — lower, 10%
- CCc1sc(NC(=O)COc2ccccc2)c(C(N)=O)c1C — lower, 8.8%
- COc1ccc(-n2nc3cc(C)c(N)cc3n2)cc1 — lower, 5.6%
- CC(=O)N(C)c1ccc(N=Cc2c(C)[nH]c3ccccc23)cc1 — lower, 6.4%
- O=C(COC(=O)c1cccc(N2C(=O)CCC2=O)c1)c1ccccc1 — higher, 10.2%
- Cc1cccc(OCc2nnc(N)s2)c1 — lower, 0.8%
- O=C(O)CN1C(=O)/C(=N/N2C(=O)CSC2=S)c2ccccc21 — lower, 0.4%
- COCCNC(=O)CN(c1ccc(OC)cc1OC)S(=O)(=O)c1ccccc1[N+](=O)[O-] — lower, 2.6%
- O=C1C(=O)N(c2nccs2)C(c2cccs2)/C1=C(\O)c1ccc(Cl)cc1 (stereo not given) — higher, 17.2%
- OC12CCCCC1C1(O)CCCCC1C1(CCCCC1)O2 (stereo not given) — lower, -4.6%
- Cc1cnn(-c2cc(N/N=C/c3ccccc3F)ncn2)c1 — lower, 5.9%
- CCOC(=O)c1c(N)sc(C(=O)Nc2cccc(Cl)c2)c1C — higher, 14.1%
- N/C(=N\OC(=O)C1CCCCC1)c1cccc([N+](=O)[O-])c1 — lower, -5.1%
- COc1ccccc1CNS(=O)(=O)c1ccc(Cl)cc1 — lower, -10.2%
- CCOC(=O)c1c(N2C(=O)C=CC2=O)sc(C)c1C — lower, -24.5%
- CCCS(=O)(=O)c1c(S(=O)(=O)CCC)c2c3ccccc3ccn2c1C(=O)c1ccc(C)cc1 — lower, -7.3%
- O=C(N/N=C/c1ccc2ccccc2c1)c1cccc(F)c1 — lower, -8.5%
- CCC(C(=O)n1nnc2ccccc21)c1ccccc1 (stereo not given) — lower, 6.8%
- C=CCN1C(=O)/C(=C/c2cccc([N+](=O)[O-])c2)C(=O)NC1=S — higher, 17.1%
- COCCOC(=O)c1c(C)oc2ccc(OC(=O)c3ccc([N+](=O)[O-])o3)cc12 — higher, 10.3%
- CCOC(=O)CP(=O)(c1ccccc1)c1ccccc1 — lower, 0.4%
- Cc1ccc(/C(O)=C2\C(=O)C(=O)N(CCCC(=O)O)C2c2ccc(C)cc2)cc1 (stereo not given) — lower, 7.8%
- CCOc1ccc(NC(=S)NC(=O)COc2ccccc2)cc1 — lower, 8.9%
- O=c1[nH]n(Cc2ccccc2)c2ccccc12 — higher, 14.2%
- O=C(Nc1cc(Sc2ccccc2)cc([N+](=O)[O-])c1)c1ccc(F)c(F)c1 — lower, 0.6%
- O=C(NC(=S)Nc1ccc(SC(F)F)cc1)c1cccs1 — lower, -11.4%
- O=[N+]([O-])c1ccccc1N/C(=N/S(=O)(=O)c1ccc(Cl)cc1)c1ccccc1 — higher, 17.1%
- O=C(Nc1ccccc1)Nc1ccccc1C(=O)O — lower, -7.2%
- CN(C)c1cc(N/N=C/c2cccc([N+](=O)[O-])c2)nc(N(C)C)n1 — lower, 3.9%
- O=C(O)CCCc1nc2ccccc2s1 — higher, 13.3%
- Cc1c(C#N)c2ncn(Cc3ccccc3)c(=O)c2n1-c1ccccc1 — higher, 12.4%
- COc1ccc(C2CC(C(F)(F)F)n3ncc(C(=O)Nc4ccc(F)cc4F)c3N2)cc1OC (stereo not given) — lower, -1.7%
